This note sets out measurements from article PMC4336329 (PLoS ONE, 2015).

The campaign covered roughly 310,000 compounds. About 14,000 (4.5%) showed an effect of 50% or more. Effects have a minus sign here. The list shows a part of the results.
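Note: peak tail current of the secondary pulse compared with the same well before compound.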

human ether-à-go-go-related gene (hERG) potassium channel, sequence (Q12809 whole entry, looked up): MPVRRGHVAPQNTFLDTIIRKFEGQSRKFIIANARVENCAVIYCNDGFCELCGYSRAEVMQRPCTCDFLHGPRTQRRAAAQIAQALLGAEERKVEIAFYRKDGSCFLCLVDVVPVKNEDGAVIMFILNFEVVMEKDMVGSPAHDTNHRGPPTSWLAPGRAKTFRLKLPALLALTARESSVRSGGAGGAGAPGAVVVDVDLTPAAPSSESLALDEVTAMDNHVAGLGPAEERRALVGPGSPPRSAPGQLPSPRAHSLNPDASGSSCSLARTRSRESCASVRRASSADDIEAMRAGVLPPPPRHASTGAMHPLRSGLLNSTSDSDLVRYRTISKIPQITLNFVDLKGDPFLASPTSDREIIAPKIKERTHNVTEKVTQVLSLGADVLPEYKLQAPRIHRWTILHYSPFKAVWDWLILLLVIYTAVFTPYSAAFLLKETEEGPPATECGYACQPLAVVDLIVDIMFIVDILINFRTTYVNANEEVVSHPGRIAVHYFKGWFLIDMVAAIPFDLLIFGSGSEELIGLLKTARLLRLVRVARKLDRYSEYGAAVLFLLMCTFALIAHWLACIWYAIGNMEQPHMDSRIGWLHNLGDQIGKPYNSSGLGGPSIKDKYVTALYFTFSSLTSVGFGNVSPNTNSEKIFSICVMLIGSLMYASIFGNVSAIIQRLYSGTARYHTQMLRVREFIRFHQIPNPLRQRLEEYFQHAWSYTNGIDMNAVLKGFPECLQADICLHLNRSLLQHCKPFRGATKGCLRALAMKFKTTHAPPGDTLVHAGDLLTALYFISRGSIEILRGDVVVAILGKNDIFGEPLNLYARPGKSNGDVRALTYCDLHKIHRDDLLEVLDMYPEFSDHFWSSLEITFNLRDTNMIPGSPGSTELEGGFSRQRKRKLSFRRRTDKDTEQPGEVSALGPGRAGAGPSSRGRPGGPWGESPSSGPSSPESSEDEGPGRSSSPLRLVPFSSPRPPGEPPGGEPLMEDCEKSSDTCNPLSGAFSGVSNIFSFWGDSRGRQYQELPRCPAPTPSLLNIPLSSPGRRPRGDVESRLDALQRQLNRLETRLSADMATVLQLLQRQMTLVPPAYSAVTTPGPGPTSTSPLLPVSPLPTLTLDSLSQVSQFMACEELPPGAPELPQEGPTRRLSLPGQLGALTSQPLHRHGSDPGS

This test has as its target human ether-à-go-go-related gene (hERG) potassium channel (human, UniProt Q12809). As to the kind of experiment: primary screen, population patch clamp on CHO cells stably expressing hERG.
Turning to `CC(C)OP(=O)(CCP(=O)(OC(C)C)OC(C)C)OC(C)C`, the “hERG current change (%, negative = inhibition) at 10uM” value is on record as 17.9%.
As to `CCOC(=O)c1cc(-c2ccccc2)sc1NC(=O)CN1C(=O)NC(CC)(c2ccccc2)C1=O` (stereo not drawn), the “hERG current change (%, negative = inhibition) at 10uM” value is listed as 0.134%.
Then `CN1/C(=N\O)c2cccc3cccc1c23`, with 0.693%; and `Cc1c(Cl)cccc1NC(=S)/C(=C(\[O-])c1ccc(Cl)s1)[n+]1ccccc1`, with 3.76%.
With `CC(O)CNCCOc1cccc(Oc2ccccc2)c1.O=C(O)C(=O)O` (stereo not drawn), the “hERG current change (%, negative = inhibition) at 10uM” value is -18.1%.
Next, `Cc1cc(Oc2ccccc2)nc(-c2ccccc2)n1`: -4.18%; `Cc1[nH]ccc(=O)c1OC1OC(CO)C(O)C(O)C1O` (stereo not drawn): 16.6%.
Next, `CCCCCC(O)(c1ccc(OC)cc1)C(CN1CCOCC1)c1ccccc1.Cl` (stereo not drawn): 7.74%; `CCc1ccc(NC(=O)CN(C)S(=O)(=O)c2ccc3[nH]c(=O)oc3c2)cc1`: 8.73%; `O=C(O)C(=O)O.O=C(c1ccc(F)cc1)N1CCN(C2CCC(c3ccccc3)CC2)CC1` (stereo not drawn): -76%.
For `CCCNC(=O)c1c(NC(=O)C2COc3ccccc3O2)sc2c1CCCC2` (stereo not drawn), the “hERG current change (%, negative = inhibition) at 10uM” value was 1.77%.
On to `COc1ccccc1CNC(=O)c1cc(S(=O)(=O)N2CCCCC2)c[nH]1`, for which the “hERG current change (%, negative = inhibition) at 10uM” value is listed as -6.24%.
Then `CCN(CC(=O)Nc1c(F)cccc1F)C(=O)CCCc1nc2ccccc2c(=O)[nH]1`, with 20.1%.
Next, `Cc1cc(C)n(-c2cc(N3CCN(S(=O)(=O)c4ccc(Cl)cc4)CC3)ccc2[N+](=O)[O-])n1`: -32.8%; `O=S1(=O)CCC(NS(=O)(=O)c2ccc3ccccc3c2)C1` (stereo not drawn): 11.1%; `CCN(CC(=O)Nc1c(F)cccc1F)C(=O)CNC(=O)COc1ccccc1`: -2.62%.
Turning to `CC(=O)c1ccc(OCc2cc(C(=O)NCC3CCCCO3)no2)cc1` (stereo not drawn), the “hERG current change (%, negative = inhibition) at 10uM” value worked out at 8.13%.
Then `CCn1cc(C(=O)NCCN(C)CCc2ccccc2)c(=O)c2cc(S(=O)(=O)N(C)C)ccc21`, with -43.5%.
Regarding `CC(CCl)OC(C)CCl` (stereo not drawn), the “hERG current change (%, negative = inhibition) at 10uM” value was found to be 14.4%.
Then `CCn1cc(CN2CCC(n3nccc3NC(=O)C3CCCC3)CC2)cn1`, with -6.15%; and `CCOc1ccc(NC(=O)CN(C)C(=O)CN2C(=O)C3CC=CCC3C2=O)cc1OCC` (stereo not drawn), with 13.9%; and `CCOC(=O)c1sc(N=NC2=C(O)CC(C)(C)CC2=O)c(C(=O)OCC)c1C`, with -15.4%.
Take `CN(c1ccc(C(=O)NCc2ccncc2)cc1)S(=O)(=O)c1ccc(Cl)cc1`: the “hERG current change (%, negative = inhibition) at 10uM” value is recorded as -52.1%.
Next, `O=c1[nH]c2ccccc2c(=O)n1Cc1ccco1`: -6.52%.
